Assay results as given in the supplement of paper PMC4967469.
Lines with a small IC50 respond at low doses; a limit (>, <) means that the fit lies beyond the doses tested. For AUC the same curve is integrated over the 256-fold range of doses and scaled to a fraction; the more sensitive the line, the further below 1. For some assays here: Any top dose called inferred was calculated from the reported fits. For some assays here: Where an entry number is given, a second screen of the drug exists; the two often differ.

Key:
Assay in all cases: Viability of human cancer cell lines after 72 h of drug (GDSC screen)
[1] = compound: CN1CCN(c2ccc([N+](=O)[O-])c3no[n+]([O-])c23)CC1 [NSC-207895]; details: top dose 20 µM; top dose inferred
Procedure: (§1)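 Human cancer cell lines in 384-well plates, medium with 10% serum, drug for 72 h over a 256-fold dose range (nine 2-fold or five 4-fold steps up to the top dose). Adherent lines were fixed and stained with the nucleic acid dye Syto60, suspension lines read with resazurin; signal relative to control wells, capped at 0 and 100%. One two-parameter sigmoid per drug and line, fitted in a mixed model over all curves with the slope shared within a line.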

[2] = compound: Cc1ccc(C(=O)N(CCCN)[C@@H](c2nc3cc(Cl)ccc3c(=O)n2Cc2ccccc2)C(C)C)cc1 [SB-715992]; details: top dose 0.128 µM; top dose inferred
Procedure: as §1

[3] = compound: CCOc1nc(NC(=O)Cc2cc(OC)ccc2OC)cc(N)c1C#N [JNK Inhibitor VIII]; details: top dose 10 µM; top dose inferred
Procedure: as §1

[4] = compound: OCCCNc1cc(-c2ccnc(Nc3cccc(Cl)c3)n2)ccn1 [CGP-60474]; details: top dose 0.256 µM; top dose inferred
Procedure: as §1

[5] = compound: COC(=O)[C@H](CCSC)NC(=O)c1ccc(NC[C@@H](N)CS)cc1-c1ccccc1 [FTI-277]; details: top dose 1.024 µM; top dose inferred
Procedure: as §1

[6] = compound: c1ccc2c(CCNc3ccc(Nc4ccncc4)cc3)c[nH]c2c1 [JNJ-26854165]; details: top dose 10 µM
Procedure: as §1

[7] = compound: C[C@]1(O)C[C@@H](c2nc(-c3ccc4ccc(-c5ccccc5)nc4c3)c3c(N)nccn32)C1 [OSI-906]; details: top dose 2.56 µM; top dose inferred
Procedure: as §1

[8] = compound: CC1(C)CNc2cc(NC(=O)c3cccnc3NCc3ccncc3)ccc21 [AMG-706]; details: top dose 2 µM; top dose inferred
Procedure: as §1

[9] = compound: Cc1sc2c(c1C)C(c1ccc(Cl)cc1)=N[C@@H](CC(=O)OC(C)(C)C)c1nnc(C)n1-2 [JQ1]
Procedure: as §1

[10] = compound: COCC[n+]1c2c(n(Cc3cnccn3)c1C)C(=O)c1ccccc1C2=O [YM155]; details: top dose 5.12 µM
Procedure: as §1

[11] = compound: CC(=O)O[C@@]12CO[C@@H]1C[C@H](O)[C@@]1(C)C(=O)[C@H](O)C3=C(C)[C@@H](OC(=O)[C@H](O)[C@@H](NC(=O)OC(C)(C)C)c4ccccc4)C[C@@](O)([C@@H](OC(=O)c4ccccc4)[C@H]21)C3(C)C [Docetaxel]; details: top dose 0.0125 µM
Procedure: as §1

[12] = compound: CC1=C2C[C@H]3[C@@H](CC=C4C[C@@H](O)CC[C@@]43C)[C@@H]2CC[C@]12O[C@@H]1C[C@H](C)CN[C@H]1[C@H]2C [Cyclopamine]; details: top dose 16 µM; top dose inferred
Procedure: as §1

[13] = compound: O=C(/C=C/c1cccc(S(=O)(=O)Nc2ccccc2)c1)NO [Belinostat]; details: top dose 20 µM; top dose inferred
Procedure: as §1

[14] = top dose 1 µM, screen: GDSC drug entry 1218, top dose inferred
[15] = top dose 2.56 µM, screen: GDSC drug entry 163

Cell Line | AUC [1] | IC50 [1] [µM] | AUC [2] | IC50 [2] [nM] | AUC [3] | IC50 [3] [µM] | AUC [4] | IC50 [4] [nM] | AUC [5] | IC50 [5] [nM] | AUC [6] | IC50 [6] [µM] | AUC [7] | IC50 [7] [nM] | AUC [8] | IC50 [8] [nM] | AUC [9, 14] | IC50 [9, 14] [nM] | AUC [9, 15] | IC50 [9, 15] [nM] | AUC [10] | IC50 [10] [nM] | AUC [11] | IC50 [11] [nM] | AUC [12] | IC50 [12] [µM] | AUC [13] | IC50 [13] [nM]
ETK-1 (biliary tract, adherent) | 0.838 | 16.3 | 0.797 | 69.7 | 0.983 | > 10 | 0.568 | 25.2 | 0.952 | > 1020 | 0.868 | > 10 | 0.9 | > 2560 | 0.983 | > 2000 | 0.978 | > 1000 | 0.764 | 1050 | 0.033 | < 20 | 0.542 | 1.03 | 0.983 | > 16 | 0.407 | 669
OS-RC-2 (kidney, adherent) | 0.943 | > 20 | 0.937 | > 128 | 0.968 | > 10 | 0.653 | 51.5 | 0.961 | > 1020 | 0.828 | > 10 | 0.948 | > 2560 | 0.932 | > 2000 | 0.974 | > 1000 | 0.678 | 635 | 0.049 | < 20 | 0.918 | > 12.5 | 0.774 | 9.35 | 0.548 | 1790
BE2-M17 (neuroblastoma, adherent) | 0.906 | > 20 | 0.834 | 86.4 | 0.985 | > 10 | 0.824 | 159 | 0.983 | > 1020 | 0.919 | > 10 | 0.699 | 591 | 0.983 | > 2000 | 0.734 | 296 | 0.777 | 1060 | 0.234 | 52.9 | 0.725 | 3.48 | 0.987 | > 16 | 0.496 | 1220
SUP-B15 (lymphoblastic leukaemia, suspension) | 0.904 | > 20 | 0.469 | 6.61 | 0.983 | > 10 | 0.712 | 61.6 | 0.946 | > 1020 | 0.723 | 2.59 | 0.986 | > 2560 | 0.986 | > 2000 |  |  | 0.554 | 223 | 0.022 | < 20 | 0.922 | > 12.5 | 0.977 | > 16 | 0.226 | 207
CESS (acute myeloid leukaemia, suspension) | 0.833 | 10.4 | 0.637 | 18 | 0.99 | > 10 | 0.648 | 38.4 | 0.969 | > 1020 | 0.928 | > 10 | 0.945 | > 2560 | 0.991 | > 2000 | 0.904 | 999 | 0.601 | 290 | 0.061 | < 20 | 0.973 | > 12.5 | 0.953 | > 16 | 0.171 | 155
KMOE-2 (acute myeloid leukaemia, suspension) | 0.881 | 17.1 | 0.884 | 112 | 0.982 | > 10 | 0.952 | > 256 | 0.977 | > 1020 | 0.933 | > 10 | 0.969 | > 2560 | 0.99 | > 2000 | 0.764 | 327 | 0.743 | 724 | 0.109 | 21.1 | 0.897 | > 12.5 | 0.974 | > 16 | 0.344 | 485
HH (T-cell leukaemia, suspension) | 0.865 | > 20 | 0.629 | 20.5 | 0.975 | > 10 | 0.725 | 87.8 | 0.876 | > 1020 | 0.836 | > 10 | 0.963 | > 2560 | 0.968 | > 2000 | 0.571 | 105 | 0.534 | 204 | 0.048 | < 20 | 0.926 | > 12.5 | 0.95 | > 16 | 0.371 | 487
WSU-DLCL2 (B-cell lymphoma, suspension) | 0.993 | > 20 | 0.848 | 71.7 | 0.989 | > 10 | 0.898 | 225 | 0.992 | > 1020 | 0.95 | > 10 | 0.992 | > 2560 | 0.993 | > 2000 | 0.752 | 283 | 0.992 | > 2560 | 0.253 | 73.3 | 0.793 | 4.67 | 0.993 | > 16 | 0.725 | 4770
HDLM-2 (Hodgkin lymphoma, suspension) | 0.961 | > 20 | 0.618 | 16.8 | 0.987 | > 10 | 0.843 | 177 | 0.984 | > 1020 | 0.842 | 6.84 | 0.97 | > 2560 | 0.988 | > 2000 | 0.984 | > 1000 | 0.764 | 915 | 0.03 | < 20 | 0.813 | 6.6 | 0.958 | > 16 | 0.82 | 11200
LB2518-MEL (melanoma, adherent) | 0.894 | > 20 | 0.923 | > 128 | 0.982 | > 10 | 0.755 | 90.8 | 0.979 | > 1020 | 0.92 | > 10 | 0.945 | > 2560 | 0.987 | > 2000 | 0.986 | > 1000 | 0.924 | > 2560 | 0.036 | < 20 | 0.882 | > 12.5 | 0.941 | > 16 | 0.561 | 1850
NCI-H64 (small cell lung carcinoma, suspension) | 0.585 | 2.01 | 0.705 | 25.4 | 0.996 | > 10 | 0.783 | 80.1 | 0.995 | > 1020 | 0.978 | > 10 | 0.993 | > 2560 | 0.994 | > 2000 |  |  | 0.631 | 333 | 0.011 | < 20 | 0.981 | > 12.5 | 0.996 | > 16 | 0.265 | 331
ARH-77 (myeloma, suspension) | 0.939 | > 20 | 0.773 | 47.9 | 0.987 | > 10 | 0.747 | 79.4 | 0.978 | > 1020 | 0.974 | > 10 | 0.986 | > 2560 | 0.972 | > 2000 | 0.769 | 363 | 0.711 | 616 | 0.031 | < 20 | 0.987 | > 12.5 | 0.893 | > 16 | 0.262 | 269
MLMA (hairy cell leukaemia, semi-adherent) | 0.786 | 8.7 | 0.719 | 33.5 | 0.964 | > 10 | 0.717 | 66.3 | 0.98 | > 1020 | 0.703 | 2.34 | 0.983 | > 2560 | 0.923 | > 2000 | 0.976 | > 1000 | 0.782 | 1080 | 0.025 | < 20 | 0.763 | 4.55 | 0.985 | > 16 | 0.181 | 136
TE-9 (oesophagus, adherent) | 0.983 | > 20 | 0.987 | > 128 | 0.976 | > 10 | 0.778 | 108 | 0.943 | > 1020 | 0.852 | 8.2 | 0.971 | > 2560 | 0.986 | > 2000 | 0.986 | > 1000 | 0.855 | 2160 | 0.866 | 4900 | 0.533 | 0.963 | 0.951 | > 16 | 0.987 | > 20000
CL-11 (large intestine, adherent) | 0.98 | > 20 | 0.986 | > 128 | 0.978 | > 10 | 0.979 | > 256 | 0.983 | > 1020 | 0.983 | > 10 | 0.983 | > 2560 | 0.987 | > 2000 | 0.986 | > 1000 | 0.965 | > 2560 | 0.819 | 3380 | 0.981 | > 12.5 | 0.985 | > 16 | 0.667 | 3880
PSN1 (pancreas, adherent) | 0.785 | 7.13 | 0.764 | 39.6 | 0.959 | > 10 | 0.505 | 16.5 | 0.985 | > 1020 | 0.935 | > 10 | 0.892 | 2170 | 0.974 | > 2000 | 0.991 | > 1000 | 0.991 | > 2560 | 0.016 | < 20 | 0.501 | 0.788 | 0.991 | > 16 | 0.178 | 167
JiyoyeP-2003 (Burkitt lymphoma, suspension) | 0.888 | 17.8 | 0.6 | 14.5 | 0.989 | > 10 | 0.625 | 33.7 | 0.976 | > 1020 | 0.982 | > 10 | 0.99 | > 2560 | 0.99 | > 2000 | 0.91 | > 1000 | 0.702 | 544 | 0.019 | < 20 | 0.925 | > 12.5 | 0.96 | > 16 | 0.29 | 349
EW-24 (Ewing sarcoma, semi-adherent) | 0.989 | > 20 | 0.991 | > 128 | 0.981 | > 10 | 0.905 | > 256 | 0.991 | > 1020 | 0.975 | > 10 | 0.993 | > 2560 | 0.987 | > 2000 | 0.976 | > 1000 | 0.993 | > 2560 | 0.13 | 26.8 | 0.987 | > 12.5 | 0.992 | > 16 | 0.729 | 5090
